# Experimental data as given in ChEMBL document CHEMBL1157539, “Thousands of chemical starting points for antimalarial lead identification” (Nature, 2010).
# The full ranking holds about 13,000 compounds; the median of “IFI” is about 4, and the highest 2% start at about 17. The list shows a part of the results.
# Assay: GSK_TCMDC: Inhibition Frequency Index (IFI). The number of non-kinase HTS assays where a compound showed > 50 % inhibition, expressed as a percentage of the number of such assays in which the compound was tested (-0 is zero)
# Format: functional
row,SMILES,IFI [%]
1,Cc1cccc(Nc2nc(C)cc(N3CCCN(CC4CCCCC4)CC3)n2)c1,3.66
2,Cc1ccc(NC(=O)c2ccc(N3CCN(c4ccncc4)CC3)cn2)cc1F,11.1
3,O=C(/C=C/c1ccc(Cl)c(Cl)c1)NCCCCCN1CCC(NC(=O)Nc2ccc(Cl)cc2F)CC1,13
4,CC(=O)c1nccc(C)c1N,0
5,O=C(Nc1cc(Cl)ccc1O)c1cnn2c(C(F)(F)F)cc(-c3cccs3)nc12,0
6,Cc1ccc(NC(=O)c2ccnc(N3CCN(c4ccncc4)CC3)c2)cc1F,5.71
7,COc1ccc2nc3cc(Cl)ccc3c(Nc3ccc(C(=O)O)cc3)c2c1,-0
8,Cc1cccc2nc(-c3cccc(-c4cccc(C(=O)NCCN5CCCC5)c4)c3)[nH]c12,5.41
9,COc1cc2c(cc1OC)-c1cc(=Nc3c(C)cc(C)cc3C)n(C)c(=O)n1CC2,5
10,Cn1c(=O)c(-c2c(Cl)cccc2Cl)cc2cnc(Nc3ccc(N4CCOCC4)cc3)nc21,6.25
11,FC(F)(F)c1ccc2[nH]c(-c3ccc(-c4ccc(CN5CCN(c6ccncc6)CC5)cc4)cc3)nc2c1,13.5
12,COc1ccc(CNc2ncnc3c2[nH]c2ccc(F)cc23)cc1,17.2
13,COc1ccccc1N=C1SC(=Cc2cn(CC(=O)N3CCCc4ccccc43)c3ccccc23)C(=O)N1C1CCCCC1,2.17
14,O=C(Nc1ccc([N+](=O)[O-])cc1Br)c1cc2ccccc2nc1Cl,-0
15,Cc1cccc2nc(-c3ccc(-c4cccc(CN5CCN(CCO)CC5)c4)cc3)[nH]c12,3.96
16,c1ccc(CCNCc2ccc(-c3cccc(CNc4ccc5ncccc5c4)c3)cc2)cc1,9.09
17,CC(C)CNC(=O)c1cncc(-c2ccc(CNCCCc3ccccc3)cc2)c1,4.84
18,O=C(CCNc1ccnc(NCCc2ccc(F)cc2)n1)Nc1ccccc1,4.55
19,O=c1cc(NCCCNCc2cc(Cl)cc(Cl)c2OCc2ccccc2)[nH]c2ccccc12,5.15
20,CC(=O)Nc1ccc(CN2CCC(CNC(=O)c3cc(-c4cccc(C(F)(F)F)c4)cs3)C2)cc1 (stereo unspecified),8.16
21,Cc1nc(C)c(-c2ccc(Oc3cc(Cl)cc(Cl)c3)cc2)c(O)c1Br,2.31
22,Cc1cc(N/N=C/c2ccccc2[N+](=O)[O-])c2cccc(C)c2n1,0.77
23,Fc1ccccc1C=NN=c1cc[nH]c2ccc(C(F)(F)F)cc12,0.75
24,CN(C)CCNc1cc(-c2cccnc2)nc(-c2ccncc2)n1,0
25,O=C(NC1CCN(c2ccnc(Nc3ccc(F)cc3)n2)C1)c1cc2ccccc2s1 (stereo unspecified),3.08
26,CN(C)Cc1ccc(-c2ccc(NC(=O)c3ccc4c(=O)n(Cc5ccccc5)cnc4c3)cc2)cc1,7.84
